# Measured values published in the supplement of paper PMC4604168 (melanoma cell lines).
# The other results are listed elsewhere or left out. Many values rest on one well or one pass, so single values are uncertain.
# Tests used:
# Test in all cases: cell count relative to DMSO control; melanoma cells; higher = more viable cells
# Details in all cases: library dose: standard library concentration; 72 h
# G361 = system: G361
# IPC-298 = system: IPC-298
# IST-MEL1 = system: IST-MEL1
# LB2518-MEL = system: LB2518-MEL
# LOXIMVI = system: LOXIMVI
# MEL-HO = system: MEL-HO
# MZ2-MEL = system: MZ2-MEL
# MeWo = system: MeWo
# RPMI7951 = system: RPMI7951
# RVH-421 = system: RVH-421
# SkMel28 = system: SkMel28
# SkMel2 = system: SkMel2
# SkMel30 = system: SkMel30
# SkMel5 = system: SkMel5
# UACC257 = system: UACC257
# UACC62 = system: UACC62
# WM115 = system: WM115
# WM1716 = system: WM1716
# WM3526 = system: WM3526
# WM1745 = system: WM1745
# 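Also: cells treated in 1,536-well plates, then fixed and DAPI-stained, with nuclei counted from automated high-throughput microscope images.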
Compound,cell count (G361),cell count (IPC-298),cell count (IST-MEL1),cell count (LB2518-MEL),cell count (LOXIMVI),cell count (MEL-HO),cell count (MZ2-MEL),cell count (MeWo),cell count (RPMI7951),cell count (RVH-421),cell count (SkMel28),cell count (SkMel2),cell count (SkMel30),cell count (SkMel5),cell count (UACC257),cell count (UACC62),cell count (WM115),cell count (WM1716),cell count (WM3526),cell count (WM1745)
"OCc1c[nH]c2ccccc12 [Indole-3-carbinol] + CCN(CC)CCCCNc1ncc2cc(-c3cc(OC)cc(OC)c3)c(NC(=O)NC(C)(C)C)nc2n1 [PD173074] (first compound 4 µM, partner dose 0.5 µM)",101%,100%,92.4%,84.1%,89.8%,95.9%,111%,89.1%,99.1%,83%,116%,88.1%,74.4%,108%,117%,117%,108%,101%,119%,
"Clc1ccc(Nc2nnc(Cc3ccncc3)c3ccccc23)cc1 [vatalanib] + COc1cc(Nc2ncc(F)c(Nc3ccc4c(n3)NC(=O)C(C)(C)O4)n2)cc(OC)c1OC [Tamatinib] (first compound 10 µM, partner dose 2 µM)",49.3%,68.8%,37%,,16.8%,43.4%,,60.9%,14%,77%,79.3%,73.8%,89.1%,40.7%,50.4%,65.2%,71.4%,61.8%,66.4%,29.5%
"Clc1ccc(Nc2nnc(Cc3ccncc3)c3ccccc23)cc1 [vatalanib] + COc1cc2ncnc(Nc3ccc(Oc4ccccc4)cc3)c2cc1OC [SrcI1] (first compound 10 µM, partner dose 10 µM)",30.1%,53.4%,63.5%,127%,58.2%,64.5%,41.5%,48.4%,32.1%,81.3%,53.6%,78.8%,67.2%,39.3%,71.4%,56.9%,67.2%,70.8%,42.3%,
"OCc1c[nH]c2ccccc12 [Indole-3-carbinol] + Cn1cc(/C=C2\C(=O)Nc3cccnc32)c2ccccc21 [GW441756] (first compound 4 µM, partner dose 2 µM)",113%,95%,96%,93.2%,104%,114%,94.3%,88.4%,104%,107%,85.4%,106%,89.2%,62.5%,88.2%,69.5%,111%,99.5%,97.9%,
"OCc1c[nH]c2ccccc12 [Indole-3-carbinol] + COc1cc2ncnc(Nc3ccc(Oc4ccccc4)cc3)c2cc1OC [SrcI1] (first compound 4 µM, partner dose 10 µM)",70.6%,84.6%,88.5%,138%,105%,95.5%,81.6%,88%,60.9%,108%,66.5%,95.7%,122%,79.8%,85.7%,71.8%,63.1%,91%,78.7%,
"OCc1c[nH]c2ccccc12 [Indole-3-carbinol] + COc1ccc2c(c1)CCC1C2CCC2(C)C(NCCCCCCN3C(=O)C=CC3=O)CCC12 [U73122] (first compound 4 µM, partner dose 2 µM)",92.5%,90%,80.8%,99.3%,63.6%,94.7%,79.9%,61.3%,22.5%,90.6%,87.8%,86.4%,80.3%,55.2%,84.2%,59.4%,61.5%,80.3%,79.6%,
"Nc1cccc2c1CN(C1CCC(=O)NC1=O)C2=O (centres undefined) [lenalidomide] + COc1cc2c(Oc3ccc4[nH]c(C)cc4c3F)ncnc2cc1OCCCN1CCCC1 [cediranib] (first compound 5 µM, partner dose 2 µM)",78.3%,99%,91.5%,,63.4%,92.4%,,76.5%,68.4%,74.4%,89.3%,,101%,87.1%,93.7%,72.9%,94.6%,85.3%,93.1%,74.1%
"C#Cc1cccc(Nc2ncnc3cc(OCCOC)c(OCCOC)cc23)c1 [erlotinib] + OCCn1cc(-c2cnc3nnn(Cc4ccc5ncccc5c4)c3n2)cn1 [PF04217903] (first compound 4 µM, partner dose 5 µM)",87.5%,66%,101%,,79.2%,79%,,66.8%,64.7%,83.9%,60.9%,75.2%,78.9%,62.1%,89.4%,61.9%,82.4%,85.3%,64.4%,50.3%
"Clc1ccc(Nc2nnc(Cc3ccncc3)c3ccccc23)cc1 [vatalanib] + CCCCCCCCCCCC1=C(O)C(=O)C=C(O)C1=O [Embelin] (first compound 10 µM, partner dose 6 µM)",58%,52.8%,65.4%,84.7%,87%,54.7%,66.2%,70.4%,54.6%,44.6%,75.9%,76.5%,101%,70.9%,73.4%,108%,94.5%,77%,88.6%,
"OCc1c[nH]c2ccccc12 [Indole-3-carbinol] + CCc1ccc(CCOc2ccc(CC3SC(=O)NC3=O)cc2)nc1 [pioglitazone] (first compound 4 µM, partner dose 10 µM)",93.2%,84.4%,90.3%,108%,104%,87.6%,77.9%,83.2%,93.5%,77.2%,76.9%,102%,86.8%,84.5%,91.1%,118%,75.9%,86.5%,85.5%,
"Clc1ccc(Nc2nnc(Cc3ccncc3)c3ccccc23)cc1 [vatalanib] + O=S(=O)(c1ccccc1)N(CC(F)(F)F)c1ccc(C(O)(C(F)(F)F)C(F)(F)F)cc1 [T0901317] (first compound 10 µM, partner dose 7 µM)",54%,66.7%,73.4%,86.5%,89.2%,63%,74.9%,52.8%,88.6%,76.6%,54.8%,70.7%,83%,66.6%,74%,90%,78.3%,85.5%,55.7%,
"O=C(CCCCCCC(=O)Nc1ccccc1)NO [vorinostat] + Cc1ccc(NC(=O)c2cccc(N(C)C)c2)cc1NC(=O)c1ccc(O)cc1 [ZM336372] (first compound 0.4 µM, partner dose 10 µM)",77.2%,86.7%,93.3%,,105%,90.1%,,76.7%,70%,107%,66.1%,88.4%,74.9%,83%,67.5%,73.3%,66.3%,100%,89.5%,66%
"Clc1ccc(Nc2nnc(Cc3ccncc3)c3ccccc23)cc1 [vatalanib] + O=C(O)C(=O)Nc1sc2c(c1C(=O)O)CCNC2 [TCS401] (first compound 10 µM, partner dose 8.33333 µM)",79.2%,70.9%,74.9%,120%,218%,64.5%,80.6%,70.8%,72.5%,105%,85.8%,86.9%,98.6%,75.8%,86.4%,97.7%,87.2%,87%,76.2%,
"Clc1ccc(Nc2nnc(Cc3ccncc3)c3ccccc23)cc1 [vatalanib] + COc1cc(N2CCC(N3CCN(C)CC3)CC2)ccc1Nc1ncc(Cl)c(Nc2ccccc2S(=O)(=O)C(C)C)n1 [NVP-TAE684] (first compound 10 µM, partner dose 0.4 µM)",80%,70.2%,73.1%,78%,76.1%,53.8%,72.1%,45.8%,38.5%,70.8%,72.7%,50.1%,85.1%,72.2%,72%,81.4%,81.9%,78%,53.2%,
"OCc1c[nH]c2ccccc12 [Indole-3-carbinol] + Clc1ccc(Nc2nnc(Cc3ccncc3)c3ccccc23)cc1 [vatalanib] (first compound 4 µM, partner dose 10 µM)",74.1%,82.9%,78%,,74.2%,58.1%,,74.3%,91%,66.9%,88.6%,88.5%,96.6%,53.8%,72%,81.4%,78.2%,91.8%,84.2%,65.4%
